Test results: the supplement of paper PMC4967469
The IC50 comes from the fitted curve, where viability falls to half of the control; a fit beyond the top or the lowest dose is shown as a bound at that dose. AUC, from the same fit, is the share of area under the viability curve across the 256-fold dose range: 1 means no effect, lower means more sensitive. Where the top dose is marked as inferred, it was calculated from the reported fits.

Compound: CCn1cc(-c2ccnc3[nH]c(-c4cccc(CN(C)C)c4)cc23)c(-c2ccc(NC(=O)N(C)C)cc2)n1 [GSK1070916]
Test: Viability of human cancer cell lines after 72 h of drug (GDSC screen)
Conditions: top dose inferred
Protocol: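 Human cancer cell lines in 384-well plates, medium with 10% serum, drug for 72 h over a 256-fold dose range (nine 2-fold or five 4-fold steps up to the top dose). Adherent lines were fixed and stained with the nucleic acid dye Syto60, suspension lines read with resazurin; signal relative to control wells, capped at 0 and 100%. One two-parameter sigmoid per drug and line, fitted in a mixed model over all curves with the slope shared within a line.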

Cell Line	AUC	IC50
SF268 (glioma, adherent, top dose 2.56 µM)	0.884	> 2560 nM
C-4-I (cervix, adherent, top dose 2.56 µM)	0.968	> 2560 nM
VMRC-MELG (melanoma, adherent, top dose 2.56 µM)	0.988	> 2560 nM
NOS-1 (osteosarcoma, adherent, top dose 2.56 µM)	0.735	886 nM
NCI-H1869 (lung squamous cell carcinoma, adherent, top dose 2.56 µM)	0.967	> 2560 nM
NCI-H2029 (small cell lung carcinoma, adherent, top dose 2.56 µM)	0.991	> 2560 nM
IHH-4 (thyroid, semi-adherent, top dose 2.56 µM)	0.96	> 2560 nM
NKM-1 (acute myeloid leukaemia, suspension, top dose 2.56 µM)	0.184	17.4 nM
NCI-H2135 (non-small cell lung carcinoma, adherent, top dose 2.56 µM)	0.978	> 2560 nM
SW756 (cervix, adherent, top dose 2.56 µM)	0.985	> 2560 nM
OVCAR-8 (ovary, adherent, top dose 2.56 µM)	0.96	> 2560 nM
HPAC (pancreas, adherent, top dose 2.56 µM)	0.799	1860 nM
NCI-H2170 (lung squamous cell carcinoma, adherent, top dose 2.56 µM)	0.939	> 2560 nM
DU-4475 (breast, suspension, top dose 2.56 µM)	0.893	2050 nM
NB7 (neuroblastoma, adherent, top dose 2.56 µM)	0.84	1880 nM
HEL (acute myeloid leukaemia, semi-adherent, top dose 2.56 µM)	0.895	2180 nM
EB2 (Burkitt lymphoma, suspension, top dose 2.56 µM)	0.798	1090 nM
NCI-H1876 (small cell lung carcinoma, adherent, top dose 2.56 µM)	0.832	1670 nM
ME-1 (acute myeloid leukaemia, suspension, top dose 2.56 µM)	0.904	> 2560 nM
EBC-1 (lung squamous cell carcinoma, adherent, top dose 2.56 µM)	0.938	> 2560 nM
HUTU-80 (digestive system, adherent, top dose 2.56 µM)	0.084	< 10 nM
M14 (melanoma, adherent, top dose 2.56 µM)	0.987	> 2560 nM
JHOS-2 (ovary, adherent, top dose 2.56 µM)	0.981	> 2560 nM
DSH1 (bladder, adherent, top dose 2.56 µM)	0.977	> 2560 nM
HOS (osteosarcoma, adherent, top dose 2.56 µM)	0.992	> 2560 nM
HCC38 (breast, adherent, top dose 2.56 µM)	0.952	> 2560 nM

Cell Line	AUC	IC50
CA46 (Burkitt lymphoma, suspension, top dose 2.56 µM)	0.847	2110 nM
U031 (kidney, adherent, top dose 2.56 µM)	0.892	> 2560 nM
OPM-2 (myeloma, suspension, top dose 2.56 µM)	0.746	688 nM
NCI-H209 (small cell lung carcinoma, suspension, top dose 2.56 µM)	0.618	347 nM
T-T (oesophagus, adherent, top dose 2.56 µM)	0.987	> 2560 nM
OE19 (oesophagus, adherent, top dose 2.56 µM)	0.986	> 2560 nM
HOP-92 (large cell lung carcinoma, adherent, top dose 2.56 µM)	0.982	> 2560 nM
NCI-H2347 (lung adenocarcinoma, adherent, top dose 2.56 µM)	0.918	> 2560 nM
MMAC-SF (melanoma, adherent, top dose 2.56 µM)	0.979	> 2560 nM
KYSE-510 (oesophagus, adherent, top dose 2.56 µM)	0.982	> 2560 nM
H513 (mesothelioma, semi-adherent, top dose 2.56 µM)	0.982	> 2560 nM
CL-11 (large intestine, adherent, top dose 2.56 µM)	0.97	> 2560 nM
SLVL (B-cell lymphoma, suspension, top dose 2.56 µM)	0.902	> 2560 nM
RCC-AB (kidney, adherent, top dose 2.56 µM)	0.902	> 2560 nM
NCI-H1688 (small cell lung carcinoma, adherent, top dose 2.56 µM)	0.978	> 2560 nM
CAL-12T (non-small cell lung carcinoma, adherent, top dose 2.56 µM)	0.849	2270 nM
HCC1569 (breast, adherent, top dose 2.56 µM)	0.846	> 2560 nM
NCI-H1568 (lung adenocarcinoma, adherent, top dose 2.56 µM)	0.96	> 2560 nM
PL18 (pancreas, adherent, top dose 2.56 µM)	0.988	> 2560 nM
SJRH30 (rhabdomyosarcoma, adherent, top dose 2.56 µM)	0.83	1680 nM
KYSE-140 (oesophagus, adherent, top dose 2.56 µM)	0.891	> 2560 nM
HAL-01 (lymphoblastic leukaemia, suspension, top dose 2.56 µM)	0.788	982 nM
H3118 (head and neck, adherent, top dose 2.56 µM)	0.914	> 2560 nM
H2804 (mesothelioma, adherent, top dose 2.56 µM)	0.947	> 2560 nM
A2058 (melanoma, adherent, top dose 2.56 µM)	0.892	2450 nM
NCI-H1304 (small cell lung carcinoma, suspension, top dose 2.56 µM)	0.625	364 nM

Cell Line	AUC	IC50
KYSE-410 (oesophagus, adherent, top dose 2.56 µM)	0.955	> 2560 nM
P12-ICHIKAWA (T-cell lymphoblastic leukaemia, suspension, top dose 2.56 µM)	0.014	< 10 nM
NCI-H838 (lung adenocarcinoma, adherent, top dose 2.56 µM)	0.985	> 2560 nM
OCI-LY-19 (B-cell lymphoma, suspension, top dose 2.56 µM)	0.039	< 10 nM
LAN-6 (neuroblastoma, adherent, top dose 2.56 µM)	0.898	> 2560 nM
GAMG (glioma, adherent, top dose 2.56 µM)	0.452	117 nM
LU-165 (small cell lung carcinoma, suspension, top dose 2.56 µM)	0.961	> 2560 nM
RERF-LC-Sq1 (lung squamous cell carcinoma, adherent, top dose 2.56 µM)	0.885	> 2560 nM
22RV1 (prostate, adherent, top dose 2.56 µM)	0.82	1950 nM
K2 (melanoma, adherent, top dose 2.56 µM)	0.973	> 2560 nM
PFSK-1 (medulloblastoma, adherent, top dose 2.56 µM)	0.962	> 2560 nM
NCI-H2444 (non-small cell lung carcinoma, adherent, top dose 2.56 µM)	0.986	> 2560 nM
NCI-H2110 (non-small cell lung carcinoma, adherent, top dose 2.56 µM)	0.967	> 2560 nM
LC-1-sq (lung squamous cell carcinoma, adherent, top dose 2.56 µM)	0.963	> 2560 nM
NCI-H727 (lung carcinoid, adherent, top dose 2.56 µM)	0.918	> 2560 nM
T47D (breast, adherent, top dose 2.56 µM)	0.934	> 2560 nM
OVCAR-3 (ovary, adherent, top dose 2.56 µM)	0.986	> 2560 nM
NCI-H2405 (lung adenocarcinoma, adherent, top dose 2.56 µM)	0.951	> 2560 nM
Raji (Burkitt lymphoma, suspension, top dose 2.56 µM)	0.99	> 2560 nM
OV-90 (ovary, adherent, top dose 2.56 µM)	0.974	> 2560 nM
PA-TU-8902 (pancreas, adherent, top dose 2.56 µM)	0.969	> 2560 nM
SBC-1 (small cell lung carcinoma, suspension, top dose 2.56 µM)	0.974	> 2560 nM
TCCSUP (bladder, adherent, top dose 2.56 µM)	0.976	> 2560 nM
SUP-HD1 (Hodgkin lymphoma, suspension, top dose 2.56 µM)	0.885	> 2560 nM
Hep 3B2_1-7 (liver, adherent, top dose 2.56 µM)	0.978	> 2560 nM
